From PubChem BioAssay AID488969 (Vanderbilt High Throughput Screening Facility, 2010) come the findings set out here.

Each structure is given as a SMILES string. Whole data set: some 110,000 compounds, median “z-score” near -0.1, cut for the highest 2% near 2. The list shows a part of the results. Activity calls are given as the source filed them.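 How the source made its calls: active means z-score in the third read window above 3 or below -3; inactive means the rest.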

The test addresses Metabotropic glutamate receptor 8 (Rattus norvegicus) (UniProt P70579). The test is described as follows: rat mGluR8 modulators via GIRK flux, primary screen, cell-based, thallium flux, HTS (AID 488969). Conditions: HEK293 rat mGluR8, GIRK (G protein-gated inwardly rectifying potassium channel) thallium flux, FluoZin2; at 10 µM; stronger effect = higher value; submaximal glutamate (EC20) added with thallium.
UniProt P70579, sequence (P70579 whole entry, looked up): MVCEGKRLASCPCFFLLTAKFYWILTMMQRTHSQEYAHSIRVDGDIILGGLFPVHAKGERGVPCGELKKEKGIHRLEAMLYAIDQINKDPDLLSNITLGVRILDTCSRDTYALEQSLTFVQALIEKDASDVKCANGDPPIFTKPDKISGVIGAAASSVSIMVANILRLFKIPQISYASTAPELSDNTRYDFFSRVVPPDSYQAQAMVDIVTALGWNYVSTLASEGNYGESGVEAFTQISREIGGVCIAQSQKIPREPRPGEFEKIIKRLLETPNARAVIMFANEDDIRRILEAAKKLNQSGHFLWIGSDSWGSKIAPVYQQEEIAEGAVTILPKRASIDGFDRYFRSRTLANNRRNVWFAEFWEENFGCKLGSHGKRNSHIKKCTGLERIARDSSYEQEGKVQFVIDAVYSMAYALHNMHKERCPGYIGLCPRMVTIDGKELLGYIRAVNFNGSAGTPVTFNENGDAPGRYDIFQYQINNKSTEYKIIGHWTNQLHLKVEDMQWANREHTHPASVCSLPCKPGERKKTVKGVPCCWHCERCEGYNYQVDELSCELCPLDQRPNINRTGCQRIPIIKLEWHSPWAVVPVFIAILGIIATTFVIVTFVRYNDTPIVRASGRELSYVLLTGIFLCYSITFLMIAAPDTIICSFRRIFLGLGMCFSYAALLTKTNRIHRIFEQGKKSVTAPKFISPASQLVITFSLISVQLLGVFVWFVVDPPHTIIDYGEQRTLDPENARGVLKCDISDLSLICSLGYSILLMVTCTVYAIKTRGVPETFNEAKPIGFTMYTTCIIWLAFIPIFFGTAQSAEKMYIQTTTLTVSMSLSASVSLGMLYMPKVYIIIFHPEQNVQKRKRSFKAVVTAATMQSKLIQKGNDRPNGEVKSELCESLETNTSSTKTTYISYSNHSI
`O=C(O)CCCNS(=O)(=O)c1ccc(NCc2ccccc2)c(C(=O)O)c1`: the z-score came to 0.608.
As for `CC1CC(NC(=O)c2ncn[nH]2)CC(C)(C)C1` (centres undefined), the figure is 0.166; as for `CCC1=NN(C(=O)CCc2ccccc2O)C(O)(C(F)(F)F)C1` (centres undefined), -0.014; as for `COc1ccc(-c2cc(C(F)(F)F)nc(-n3cncn3)n2)cc1`, 0.378.
The molecule `CC1=C(C(N)=O)C(c2ccc(C)o2)C(C(N)=O)=C(C)N1` yielded a z-score of 0.494.
As for `CC(C)(C)c1ccc(C(=O)NNc2cc(N3CCCCC3)nc(N3CCCCC3)n2)cc1`, the figure is -0.139; as for `CNC(=O)C(Sc1nc(C)nc2c1oc1ccccc12)C(C)=O` (centres undefined), 0.707; as for `COc1ccccc1NC(=S)N(CCc1c(C)[nH]c2ccccc12)Cc1cccs1`, 0.381.
`COc1ccc(OC)c(C2C(C#N)=C(N)Oc3cc(C)[nH]c(=O)c32)c1` (centres undefined): the z-score was -0.0524.
`COc1ccc(C2C3=C(CCCC3=O)Nc3c(-c4ccccc4)c(C)nn32)cc1` (centres undefined) yielded a z-score of -0.809.
As for `Cc1cc(C)cc(NC(=S)NCc2ccc3c(c2)OCO3)c1`, the z-score amounted to 0.0262.
As for `O=C(NCc1ccc(Cl)cc1)c1cc(-c2ccco2)on1`, the figure is 0.451.
As for `Cc1cccc(Cn2ccc(-c3ccc(Cl)cc3)c(C#N)c2=O)c1`, the figure is -0.237.
The molecule `CCOC(=O)CP(=O)(c1ccccc1)c1ccccc1` yielded a z-score of 0.215.
`CCCCNCCCOc1cccc(Cl)c1Cl` returned a z-score of 1.7.
As for `Cc1cc(C(=O)CSc2nc3ccccc3n2C)c(C)n1C`, the figure is -0.168; as for `CC1(C)CC(=O)C(Sc2nnc(-c3ccc(NS(C)(=O)=O)cc3)n2Cc2ccco2)C(=O)C1`, 0.0581.
With `Cc1cc(C)nc(NS(=O)(=O)c2ccc(NC(=O)C3CC(=O)N(c4ccccc4)C3)cc2)n1` (centres undefined) the figure was -0.0697; with `Cc1c(C#N)c2ncn(Cc3ccccc3)c(=O)c2n1-c1ccccc1`, -0.85; with `O=C(O)CCCc1nc2ccccc2s1`, 0.0725.
As for `CSC(=O)CC(=O)NC(=O)c1ccccc1`, the figure is -0.282; as for `N#Cc1ccc(NC(=O)COC(=O)CSc2nnc(-c3ccc(Cl)cc3)o2)cc1`, -0.596; as for `O=C(NCC(c1cccnc1)N1CCN(c2ccccc2)CC1)c1ccco1` (centres undefined), -0.0332.
`O=C(Cn1cc([N+](=O)[O-])cn1)N1N=C(C(F)F)CC1(O)C(F)F` (centres undefined): the z-score was found to be 0.0964.
In the case of `O=C(c1ccco1)N1CCC(c2nc(-c3ccc(F)cc3)no2)CC1`, the z-score is -0.112.
As for `COc1ccc(CCNC(=O)C23CN(Cc4ccccc4)CC2C(c2ccc([N+](=O)[O-])cc2)=NO3)cc1` (centres undefined), the z-score was -0.401.
As for `COCc1cc(=O)[nH]c(=S)[nH]1`, the figure is 0.225; as for `CCc1nc2ccccc2n1Cc1ccccc1OC`, -0.822; as for `O=S(=O)(Nc1nccs1)c1ccc(NS(=O)(=O)c2cccs2)cc1`, 0.439.
With `COc1ccc(N/N=C(/C#N)S(=O)(=O)c2nsc(C)c2C#N)cc1` the figure was -0.0431; with `O=C(Nc1nccs1)c1ccc2c(=O)n3c(nc2c1)CCCCC3`, -0.461; with `CCCCNC(=O)c1onc(CSc2ccc(C)c(C)c2)c1C(=O)O`, -0.306.
For the molecule `Cn1c(=O)[nH]c(=O)c2c1nc(N1CCC(Cc3ccccc3)CC1)n2Cc1ccccc1`, the z-score worked out at 0.269.
In turn, `CCN1CCN(CC(=O)Nc2ccc(C)cc2C)C(=O)C1=O` returned a z-score of 0.235.
With `CN(C)/C=N/c1ncc(C(=O)c2ccccc2)s1` the figure was 0.0738; with `O=c1oc2ccccc2c(Nc2ccc3ccccc3c2)c1[N+](=O)[O-]`, -1.94; with `COCCCNC(=O)CSc1nc2ccc(N3CCOCC3)cc2c(=O)n1CCc1ccccc1`, 1.32.
With `COc1ccc(-c2noc(-c3ccccc3C(=O)Nc3cccnc3)n2)cc1` the figure was -0.217.
As for `CCCCn1nnnc1NCc1ccc(C)s1`, the figure is -0.109.
The molecule `O=C1C2C3C=CC(C4CC34)C2C(=O)N1c1nccs1` (centres undefined) yielded a z-score of 0.237.
With `CCCc1noc(-c2ccc(-c3ccccc3)cc2)n1` the figure was 0.0459; with `c1ccc(Cn2nnc3c(N4CCN(Cc5ccc6c(c5)OCO6)CC4)ncnc32)cc1`, 0.579.
With `CNC(=O)c1ccc(N(Cc2ccccc2C)S(C)(=O)=O)cc1` the figure was 0.0583; with `CC1CCCCN1C(=O)c1cc(Cl)ccc1[N+](=O)[O-]` (centres undefined), -0.372; with `CCOC(=O)C(/C=C(\C#N)C(=O)OCC)=C(/N)N1CCN(c2ccccc2)CC1`, -0.509.
Consider `COc1ccc(C)cc1NC(=O)COC(=O)c1c(C)noc1C`, for which the z-score is -0.0848.
For the molecule `Cc1cc(C)nc(NC(=O)/C=C/c2ccccc2Cl)c1`, the z-score is -0.301.
`O=C1NC(c2ccncc2)C(C(=O)c2cccs2)C(O)(C(F)(F)F)N1` (centres undefined): the z-score came out at 0.0591.
The molecule `CCOC(=O)C1=C(C)NC2=C(C(=O)c3ccccc32)C1c1cccnc1` (centres undefined) had a z-score of 0.0847.
As for `O=C(Cc1ccc(F)cc1)NCCc1ccccc1`, the figure is 0.419; as for `CC1(C)CC(=O)c2sc(N3CCCCC3)nc2C1`, -0.222.
As for `CCN(CC)CCN1C(=O)c2ccccc2NC1c1cc(OC)c(OC)c(OC)c1` (centres undefined), the figure is 0.0754; as for `CCC(C)(C)NC(=O)CN(Cc1ccc2c(c1)OCO2)C(=O)CCC(=O)Nc1ccccn1`, -0.0485; as for `O=c1[nH]c2ccc(Cl)cc2c(-c2ccccc2)c1N1CCN(CCO)CC1`, 0.464.
As for `O=C(O)c1ccccc1SCC(=O)N1CCCCC1`, the figure is 0.108; as for `c1ccc(CCc2nc(-c3ccc(-n4cccc4)cc3)no2)cc1`, -0.257; as for `Cc1ccc(/C=N/NC(=O)CN2CCN(S(=O)(=O)c3ccc(Br)cc3)CC2)s1`, -0.2.
For the molecule `O=C(CCC(=O)NNC(=S)Nc1ccccc1)NCc1ccccc1`, the z-score is 0.863.
As for `O=[N+]([O-])c1ccc(Cl)cc1CNc1ccc(F)c(F)c1`, the figure is -0.334.
On to `NS(=O)(=O)c1ccc(S(=O)(=O)N2CCCC2)cc1`, for which the z-score is active: 3.11.
For the molecule `Cc1ccc(NC(=O)CC2S/C(=N/c3nccs3)N(C)C2=O)cc1C` (centres undefined), the z-score is 0.00123.
With `O=C(CCc1nc2ccccc2[nH]c1=O)OCC(=O)c1cccc2ccccc12` the figure was -0.219; with `O=C1OC(c2ccco2)=N/C1=C\c1ccc(-c2cccc(C(F)(F)F)c2)o1`, 0.0441.
As for `COC(=O)c1ccc(NC(=O)CSc2nnc(-c3ccncc3)n2N)cc1`, the figure is 0.0398; as for `CCn1cc(C(=O)NCc2ccc3c(c2)OCO3)c(=O)c2cc(F)c(N3CCN(C(=O)c4ccco4)CC3)cc21`, 0.0623.
With `O=C(c1ccc(COc2ccccc2Br)o1)N1N=C(C(F)F)CC1(O)C(F)F` (centres undefined) the figure was -0.077.
`O=C(NCc1ccco1)c1nc2ccccc2s1` registered a z-score of 0.761.
On to `Cc1cc(NC(=O)CSc2nnc(-c3ccco3)o2)no1`, for which the z-score amounted to 0.184.
As for `COc1ccc(OC(=O)CCCN2C(=O)c3ccccc3C2=O)cc1`, the figure is -0.445.
As for `COc1cccc(/C=N/NC(=O)C(=O)NCc2ccco2)c1O`, the figure is -0.247; as for `Cc1ccsc1/C=N/NC(=O)CN1CCN(S(=O)(=O)c2ccc(Br)cc2)CC1`, -0.212.
With `COc1ccc(OC)c(C2CC(=O)C(C)C(c3cc(OC)ccc3OC)N2)c1` (centres undefined) the figure was -0.118; with `COC(=O)COc1cc(C)cc2oc(=O)c(CC(=O)OC)c(C)c12`, -0.413.
The molecule `CCOC(=O)N1CCC(NC(=O)CCN2C(=O)COc3ccccc32)CC1` yielded a z-score of 0.755.
With `Cn1c(=O)n(-c2ccccc2)c(=O)c2c3c(sc21)COC(C)(C)C3` the figure was -0.531; with `CCCn1c(C(O)c2ccc(OCC)cc2)nc2ccccc21` (centres undefined), -0.413.
Molecule `O=C(NCCc1ccc2c(c1)OCCO2)c1cccc(F)c1` showed a z-score of -0.00674.
With `CC1=C(C(=O)OCC2CCCO2)C(c2ccc(C)o2)C2=C(CC(c3ccc(N(C)C)cc3)CC2=O)N1` (centres undefined) the figure was -0.22; with `COC(=O)C1=C(C)N(CCc2ccccc2)C(=O)C1`, -0.0388.
With `COc1cc2cc(C(c3nnnn3Cc3ccc(F)cc3)N3CCCCCC3)c(=O)[nH]c2cc1OC` (centres undefined) the figure was -0.985; with `CC/C(C)=C1\SC(N2CCOCC2)=NC1=O`, 0.503; with `COc1cccc(C2C(C#N)=C(N)OC(C(C)(C)C)=C2C#N)c1` (centres undefined), -0.199.
With `CCOc1cc(C(c2c(C)[nH][nH]c2=O)c2c(C)[nH][nH]c2=O)ccc1O` the figure was -0.416.
The molecule `O=C(CSc1oc(-c2ccc(F)cc2)nc1S(=O)(=O)c1ccc(F)cc1)NCC1CCCO1` (centres undefined) returned a z-score of -0.0792.
With `N#Cc1ccccc1NC(=O)c1ccccc1OCC(=O)NCc1ccco1` the figure was -1.06; with `CCn1cc(SCC(=O)N2CCOCC2)c2ccccc21`, 0.00169; with `COc1cc(CC(=O)NNC(=O)c2cc(C)oc2C)cc(OC)c1OC`, 0.0792.
As for `Cc1ccc(N(Cc2cc3ccccc3[nH]c2=O)S(=O)(=O)c2ccccc2)cc1`, the figure is -0.384.
`COc1ccc(N2C(=O)CC(S/C(N)=N/N=C(\C)c3cccs3)C2=O)cc1` (centres undefined) showed a z-score of 0.045.
As for `C=CCNCc1cccn1-c1sc2c(c1C#N)CCCC2`, the figure is 2.43; as for `COc1cc(CNc2ccc(CNc3ncn[nH]3)cc2)ccc1OCc1ccccc1`, -0.026; as for `CC(C)N(CC(N)=O)C(=O)Cc1coc2cc3c(cc12)CCC3`, -0.0389.
As for `CCc1nn2c(=O)cc(CSc3nc4sc5c(c4c(=O)n3C)CCCC5)nc2s1`, the figure is -0.264.
On to `COCCN(CCOC)Cc1c(C)[nH]c2c(C)c(C)ccc2c1=O`, for which the z-score is 0.275.
On to `CC(C)CNS(=O)(=O)c1ccc(OCC(=O)NCC2CCCO2)c(Cl)c1` (centres undefined), for which the z-score was -0.0742.
With `O=C(NC(=S)NC1CCCCCC1)c1cncc(Br)c1` the figure was active: 6.87; with `Cc1ccc2c(COC(=O)C34CC5CC(CC(C5)C3)C4)cc(=O)oc2c1`, -0.0436.
`O=C(COCC(=O)N/N=C/c1ccc(F)cc1)N/N=C/c1ccc(F)cc1` had a z-score of -0.185.
In the case of `CC(C)(C)n1ncc2c(=O)n(CC(=O)Nc3ccccc3)cnc21`, the z-score is 0.85.
With `CN(C)/C=C/C(=O)c1ccc(F)cc1` the figure was -0.0356; with `Cc1nc(N2CCC3(CC2)OCCO3)c2nnn(Cc3ccccc3F)c2n1`, 0.309.
With `COc1ccc(C(C)(C)C)cc1NC(=O)COC(=O)c1cc(SC)ccc1Cl` the figure was -0.276; with `O=C(NCc1cccnc1)c1ccccc1Br`, -0.775.
As for `CCOc1ccc(NC(=O)CSc2nnc(-c3ccccn3)n2N)cc1`, the figure is 0.287; as for `Cc1cc(NC(=O)CCC(=O)N(CCc2ccccc2)C(C(=O)NC2CCCC2)c2ccco2)no1` (centres undefined), -0.923.
With `Cc1ccc(NC(=O)CC2NCCNC2=O)cc1` (centres undefined), the z-score is -0.155.
`COC(=O)c1[nH]c2ccc(F)cc2c1NS(=O)(=O)c1ccc(OC)cc1OC` showed a z-score of 0.0395.
The molecule `CCC(C)n1c(NC(=O)c2ccccc2)c(C#N)c2nc3ccccc3nc21` (centres undefined) had a z-score of -0.0962.
With `C=CCSc1nnc(-c2ccccc2NC(=O)CC)c(=O)[nH]1` the figure was -0.39.
